# Source: PubChem BioAssay AID720542 (National Center for Advancing Translational Sciences (NCATS), 2013)
# Screen size: about 360,000 compounds; about 740 (0.21%) were called active. This list was built around the results that the source calls inconclusive (neither active nor inactive); the mix of calls is not that of the screen. The call rests on the fitted dose curve; in most records, active means well fitted inhibition curve with a large enough effect; inconclusive means small, poorly fitted or top-dose-only effect; inactive means no such curve, though single readings can be large or run the other way. No potency is given beside an inconclusive call; the fits are too rough.
# Test system: Plasmodium falciparum AMA1 (3D7) - RON2 peptide interaction
# Assay: qHTS for Inhibitors of AMA1-RON; Towards Development of Antimalarial Drug Lead: Primary Screen; further: nearly all actives have a fitted effect of over 45% in size
# Settings: AlphaScreen AMA1-biotinylated RON2 peptide binding; series mostly up to 58.2 µM
# Summary of the method: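 AMA1 (3D7) with his tag at 25 nM final met compounds first, then biotinylated RON2 peptide at 25 nM; detection used donor plus acceptor beads, 10 µg/mL apiece, read by AlphaScreen after 30 min at room temperature.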
# Potency means the concentration at half of the fitted maximal effect; tags describe the fitted curve by direction and shape.
row,Structure (SMILES),Potency
1,O=C(O)CC/C(=C\c1ccc(N2CCCC2)c([N+](=O)[O-])c1)c1nc2ccccc2s1,"inconclusive [inhibitor, single point]"
2,COc1cc(C(=O)OCC(=O)Nc2ccc(S(=O)(=O)N3CCCC3)cc2)cc(OC)c1OC,inactive
3,Cc1cc(Nc2ccccc2)c2c([N+](=O)[O-])c(C)cc(C)c2n1,"inconclusive [inhibitor, single point]"
4,O=C1c2ccccc2C(=O)C1Cc1cccc2ccccc12,inactive
5,C=CCn1c(SCc2ccc(C(=O)Nc3ccccc3)cc2)nnc1-c1ccccc1,inactive
6,CC(=O)Nc1ccc(S(=O)(=O)N2Cc3cnnn3-c3ccccc3C2C#N)cc1 (configuration not stated),inactive
7,O=C(CCc1nc2ccccc2c(=O)[nH]1)N1CCN(C/C=C/c2ccccc2)CC1,"inconclusive [inhibitor, single point]"
8,O=C(NCC1CCCO1)c1cccc(NS(=O)(=O)c2ccc(Br)cc2)c1 (configuration not stated),inactive
9,CCOc1ccc(/C=N/OCC(=O)NC(c2ccccc2)c2ccccc2)cc1,inactive
10,CCCCn1cnc2c(oc3nc4c(cc32)CCCC4)c1=O,inactive
11,COc1ccc(CNCCc2ccccc2F)c(OC)c1C,"inconclusive [inhibitor, partial curve]"
12,O=C(c1ccccc1NS(=O)(=O)c1ccc(F)cc1)N1CCc2ccccc21,"inconclusive [inhibitor, partial curve, poor fit]"
13,Cn1cccc1/C=C1\CCc2ccccc2C1=O,active: 14.1 µM
14,O=c1c2ccccc2[nH]c(=S)n1CCc1ccccc1,inactive
15,CO/N=C\c1cc(C(=O)c2ccc(Cl)cc2Cl)cn1C,"inconclusive [inhibitor, partial curve]"
16,COc1ccc(CN2CCN(Cc3ccccc3)C(CCO)C2)cc1OC (configuration not stated),inactive

row,Structure (SMILES),Potency
1,CCN1CCN(CCOc2cccc(Cl)c2Cl)CC1,"inconclusive [inhibitor, single point]"
2,O=[N+]([O-])c1ccc(O)c(C=NN2CCCCC2)c1,inactive
3,Nc1ccc(N2CCN(c3cccc(Cl)c3)CC2)cc1,"inconclusive [inhibitor, partial curve]"
4,O=C(c1ccc(=O)oc1)N1CCCc2ccccc21,"inconclusive [inhibitor, single point]"
5,COc1ccccc1NC(=O)Nc1nc(CC(=O)Nc2ccc(N(C)C)cc2)cs1,active: 17.8 µM
6,O=C(NC(c1ccc(-c2ccccc2)cc1)c1cnccn1)C1CCN(Cc2cccs2)CC1 (configuration not stated),"inconclusive [inhibitor, single point]"
7,CCc1nc2ccc(C(=O)N3CCN(CC)CC3)cc2nc1CC,inactive
8,COc1ccc(C(c2nnnn2Cc2ccccc2)N2CCN(c3nc4ccccc4s3)CC2)cc1OC (configuration not stated),"inconclusive [inhibitor, partial curve]"
9,Cc1ccc2c(c1)Sc1c(ccc3ccccc13)N2,"inconclusive [inhibitor, single point]"
10,Cc1ccc(S(=O)(=O)CCC(=O)N(CCCN2CCOCC2)c2nc3ccccc3s2)cc1,"inconclusive [inhibitor, full curve, poor fit]"
11,COc1cc(OC)c(C(=O)OCC(=O)Nc2ccc(N3CCOCC3)cc2)cc1OC,inactive
12,CC(C)COc1cccc(C(=O)NC(=S)Nc2cccc(NC(=O)c3ccccc3Cl)c2)c1,"inconclusive [inhibitor, single point]"
13,C=CCn1c(O)c(N=NC(=O)CNC(=O)/C=C/c2ccc(OC)cc2)c2ccccc21,"inconclusive [inhibitor, single point]"
14,O=S(=O)(Nc1nc2cc3c(cc2nc1Cl)OCCO3)c1ccccc1,"inconclusive [inhibitor, single point]"
15,CCn1c(C)cc(C(=O)COC(=O)c2cccnc2SC)c1C,"inconclusive [inhibitor, single point]"
16,COc1ccc(C(CNC(=O)c2cccc(S(=O)(=O)N3CCc4ccccc43)c2)N(C)C)cc1 (configuration not stated),inactive
